# Data from the supplement of paper PMC8728848.
# The other results are listed elsewhere or left out.
# B1: Pbx2 (Cryptococcus neoformans) (protein)
# chain: AVSPLPSSTELVFYSQKRRRRRICSTATGSLSTPDPTRMTSDPYKRVGMRFSSVPRLLITFLSLLLLVSAAPPCVRFADYDSINQMFIDGGPGTKVLLCPNRLYRLSGPIIFTAADQEIATYGYPTGSERAVLRVEGRNTATAIQGDCRRCARVSVKNLVVDGNRKKLGRMRDFQLATGLVVLGGNEGQSIQNSWIKNPRGFTAIHIREGDKLQCSGARVEKNEIGPVGEEYDPEKDGDDPEMSPLGRPLADGVSIACRDSFIRDNTFRDNTDAAIVVYCSPGTLIHANHIFAQSLSAMAGILMVDSTPFNGDYTGTVVRSNIIDAVSRTIRVGIGIGPTVWSDDTETILTGGSVIGNGLKGRYMGYGIAAAGLKQWTIKDNWDEAKHEGRKSARCFDEPVNPDPIGLLYNRPTMEDCTVQSGFADHDFQYLVCIDGLYDKTNPPKHDPAPLAHDPSPTNAQEDNTVQQDGGDSKSKSIEQPREASDIEAEPSVEKMFSTGSEMMDDVLEHSHQRMHEVIDHLSRRIDILGAASAGKGSGDSKISEVLDPAMSSHLEKLQRKIEHLEFSLRSQIETAIQLRSAIQGWDQEMALVTDWEYDILLDVRHKLELSSYPHDQPLDPRLMRGQSYLNNEAVLVDDHSHPSLEGENLRAMSDRARLNANEEA
# Assays:
# Test in all cases: glycan array binding signal (z-score within array); higher = stronger binding
# Settings in all cases: glycan notation: IUPAC condensed, linker removed
# [1] = target: Neu5Ac(a2-3)Gal(b1-4)GlcNAc(b1-6)[Gal(b1-3)]GalNAc
# In short: (§1)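 Glycan array data came from 3228 arrays in the Consortium for Functional Glycomics database, and only arrays with an available protein sequence were kept. Glycan names were put into IUPAC-condensed notation, and columns mapping to the same glycan were averaged. The binding signal is a within-array Z-score, averaged across arrays of one protein sequence run at different concentrations or buffers and across linkers. A negative Z-score can be read as non-binding.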
# [2] = target: Neu5Ac(a2-3)Gal(b1-4)GlcNAc(b1-6)[Neu5Ac(a2-3)Gal(b1-3)]GalNAc
# In short: as §1
# [3] = target: Neu5Ac(a2-3)Gal(b1-4)GlcNAc6S
# In short: as §1
# [4] = target: Neu5Ac(a2-3)Gal(b1-4)[Fuc(a1-3)]GlcNAc
# In short: as §1
# [5] = target: Neu5Ac(a2-3)Gal(b1-4)[Fuc(a1-3)]GlcNAc(b1-2)Man
# In short: as §1
# [6] = target: Neu5Ac(a2-3)Gal(b1-4)[Fuc(a1-3)]GlcNAc(b1-3)Gal
# In short: as §1
# [7] = target: Neu5Ac(a2-3)Gal(b1-4)[Fuc(a1-3)]GlcNAc(b1-3)Gal(b1-4)GlcNAc
# In short: as §1
# [8] = target: Neu5Ac(a2-3)Gal(b1-4)[Fuc(a1-3)]GlcNAc(b1-3)Gal(b1-4)[Fuc(a1-3)]GlcNAc(b1-3)Gal(b1-4)[Fuc(a1-3)]GlcNAc
# In short: as §1
# [9] = target: Neu5Ac(a2-3)Gal(b1-4)[Fuc(a1-3)]GlcNAc(b1-3)GalNAc
# In short: as §1
# [10] = target: Neu5Ac(a2-3)Gal(b1-4)[Fuc(a1-3)]GlcNAc(b1-6)[Gal(b1-3)]GalNAc
# In short: as §1
# [11] = target: Neu5Ac(a2-3)Gal(b1-4)[Fuc(a1-3)]GlcNAc(b1-6)[Neu5Ac(a2-3)Gal(b1-3)]GalNAc
# In short: as §1
# [12] = target: Neu5Ac(a2-3)Gal(b1-4)[Fuc(a1-3)]GlcNAc6S
# In short: as §1
# [13] = target: Neu5Ac(a2-3)Gal6S(b1-4)GlcNAc
# In short: as §1
# [14] = target: Neu5Ac(a2-3)Gal6S(b1-4)[Fuc(a1-3)]GlcNAc
# In short: as §1
# [15] = target: Neu5Ac(a2-3)GalNAc
# In short: as §1
# [16] = target: Neu5Ac(a2-3)GalNAc(b1-4)GlcNAc
# In short: as §1
# [17] = target: Neu5Ac(a2-3)[GalNAc(b1-4)]Gal(b1-4)Glc
# In short: as §1
# [18] = target: Neu5Ac(a2-3)[GalNAc(b1-4)]Gal(b1-4)GlcNAc
# In short: as §1
# [19] = target: Neu5Ac(a2-3)[GalNAc(b1-4)]Gal(b1-4)GlcNAc(b1-3)GalNAc
# In short: as §1
# [20] = target: Neu5Ac(a2-3)[Neu5Ac(a2-6)]GalNAc
# In short: as §1
# [21] = target: Neu5Ac(a2-6)Gal
# In short: as §1
# [22] = target: Neu5Ac(a2-6)Gal(b1-3)GlcNAc(b1-3)[Gal(b1-4)GlcNAc(b1-6)]Gal(b1-4)Glc
# In short: as §1
# [23] = target: Neu5Ac(a2-6)Gal(b1-4)Glc
# In short: as §1
# [24] = target: Neu5Ac(a2-6)Gal(b1-4)GlcNAc
# In short: as §1
# [25] = target: Neu5Ac(a2-6)Gal(b1-4)GlcNAc(b1-2)Man
# In short: as §1
# [26] = target: Neu5Ac(a2-6)Gal(b1-4)GlcNAc(b1-2)Man(a1-3)Man(b1-4)GlcNAc(b1-4)GlcNAc
# In short: as §1
# [27] = target: Neu5Ac(a2-6)Gal(b1-4)GlcNAc(b1-2)Man(a1-3)[Gal(b1-4)GlcNAc(b1-2)Man(a1-6)]Man(b1-4)GlcNAc(b1-4)GlcNAc
# In short: as §1
# [28] = target: Neu5Ac(a2-6)Gal(b1-4)GlcNAc(b1-2)Man(a1-3)[GlcNAc(b1-2)Man(a1-6)]Man(b1-4)GlcNAc(b1-4)GlcNAc
# In short: as §1
# [29] = target: Neu5Ac(a2-6)Gal(b1-4)GlcNAc(b1-2)Man(a1-3)[GlcNAc(b1-4)][Neu5Ac(a2-6)Gal(b1-4)GlcNAc(b1-2)Man(a1-6)]Man(b1-4)GlcNAc(b1-4)GlcNAc
# In short: as §1
# [30] = target: Neu5Ac(a2-6)Gal(b1-4)GlcNAc(b1-2)Man(a1-3)[Man(a1-6)]Man(b1-4)GlcNAc(b1-4)GlcNAc
# In short: as §1
binder,measurement,setting,value
B1,glycan array binding signal (z-score),[1],-0.617
same,glycan array binding signal (z-score),[2],-0.105
same,glycan array binding signal (z-score),[3],-0.42
same,glycan array binding signal (z-score),[4],-0.624
same,glycan array binding signal (z-score),[5],-0.325
same,glycan array binding signal (z-score),[6],-0.186
same,glycan array binding signal (z-score),[7],-0.463
same,glycan array binding signal (z-score),[8],-0.615
same,glycan array binding signal (z-score),[9],0.907
same,glycan array binding signal (z-score),[10],0.276
same,glycan array binding signal (z-score),[11],-0.415
same,glycan array binding signal (z-score),[12],-0.51
same,glycan array binding signal (z-score),[13],-0.26
same,glycan array binding signal (z-score),[14],-0.573
same,glycan array binding signal (z-score),[15],-0.628
same,glycan array binding signal (z-score),[16],-0.573
same,glycan array binding signal (z-score),[17],-0.239
same,glycan array binding signal (z-score),[18],-0.522
same,glycan array binding signal (z-score),[19],-0.206
same,glycan array binding signal (z-score),[20],-0.486
same,glycan array binding signal (z-score),[21],-0.58
same,glycan array binding signal (z-score),[22],-0.115
same,glycan array binding signal (z-score),[23],-0.528
same,glycan array binding signal (z-score),[24],-0.507
same,glycan array binding signal (z-score),[25],0.729
same,glycan array binding signal (z-score),[26],-0.574
same,glycan array binding signal (z-score),[27],-0.362
same,glycan array binding signal (z-score),[28],-0.129
same,glycan array binding signal (z-score),[29],0.289
same,glycan array binding signal (z-score),[30],-0.389
